Experimental findings from PubChem BioAssay AID1159614 (National Center for Advancing Translational Sciences (NCATS), 2016) are described below.

Screen size: about 45,000 compounds; about 65 (0.1%) were called active. The call rests on the fitted dose curve; in most records, active means well fitted activation curve with a large enough effect; inconclusive means small, poorly fitted or top-dose-only effect; inactive means no such curve, though single readings can be large or run the other way. The list shows a part of the results.

Sequence of UniProt P54803 (P54803 whole entry, looked up): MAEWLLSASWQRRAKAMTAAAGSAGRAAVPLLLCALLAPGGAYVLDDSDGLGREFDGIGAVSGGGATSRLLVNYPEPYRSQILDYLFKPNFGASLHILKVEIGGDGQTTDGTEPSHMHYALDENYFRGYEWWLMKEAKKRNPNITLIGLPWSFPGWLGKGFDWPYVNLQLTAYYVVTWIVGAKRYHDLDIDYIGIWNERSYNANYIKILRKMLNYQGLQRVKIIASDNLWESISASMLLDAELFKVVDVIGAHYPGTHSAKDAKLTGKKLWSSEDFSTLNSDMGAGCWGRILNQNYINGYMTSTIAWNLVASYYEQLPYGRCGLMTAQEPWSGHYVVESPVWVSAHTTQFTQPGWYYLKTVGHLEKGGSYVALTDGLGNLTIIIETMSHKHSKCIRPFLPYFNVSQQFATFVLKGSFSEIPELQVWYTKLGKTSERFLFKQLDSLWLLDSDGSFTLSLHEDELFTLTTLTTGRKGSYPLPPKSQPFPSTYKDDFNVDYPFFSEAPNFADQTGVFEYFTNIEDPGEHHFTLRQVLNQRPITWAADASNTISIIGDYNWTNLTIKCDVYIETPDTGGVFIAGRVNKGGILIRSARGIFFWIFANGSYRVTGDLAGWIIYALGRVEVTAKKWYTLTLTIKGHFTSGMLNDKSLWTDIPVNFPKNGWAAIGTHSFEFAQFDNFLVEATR

For this assay, the target named is Galactocerebrosidase (Homo sapiens) (UniProt P54803). As to the kind of experiment: A Novel Cell-Based Assay to Identify Small Molecules for B -Galactocerebrosidase. Further: 0% is about no effect; nearly all actives have a fitted effect of over 65% in size. The conditions noted are these: 145M-Twi-hGALC-G270D cells (Twitcher mouse brain line with human GALC G270D), HMU-beta-Gal fluorescence, 48 h; series mostly up to 57.5 µM; activation: at the top concentration. In short, it runs like this:
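Brain-derived Twitcher mouse 145M-Twi cells stably expressing human GALC-G270D or wild-type GALC, treated live, then residual GALC activity read by fluorescence of HMU-b-Gal substrate (0.1 mM final) in citrate-phosphate buffer pH 5.2 with sodium taurocholate. Signal increase indicates enhancement.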
Turning to `CCc1cccc(C)c1Nc1c(-c2cccc(O)c2)nc2cnccn12`, the “activation” value is inactive: -5.65%. The figure for `O=C(CCS(=O)(=O)c1cc2c3c(c1)CCN3C(=O)CC2)NCc1ccc(Cl)cc1` is inactive: -3.35%; for `COc1ccc(/C=C/c2nc(C#N)c(NC3CCCCC3)o2)cc1OC` it is inactive: -7.77%; for `CCOc1ccccc1NC(=O)Cn1nc2c3cc(F)ccc3n(Cc3cccc(C)c3)cc-2c1=O` it is inactive: -31.8%.

In the case of `COc1ccccc1CNC(=O)Cn1c(-c2cccs2)cc2cc(F)ccc21`, the “activation” value is inactive: -12%. The figure for `Cc1ccc(C)c(NC(=O)C(=O)NCCc2csc(-c3cccc(F)c3)n2)c1` is inactive: -20.2%; for `Cn1c(=O)cc(SCC(=O)Nc2cccc(C#N)c2)c2ccc(Cl)cc21` it is inactive: -12.2%; for `CCOC(=O)c1ccc(NC(=O)c2cc3c(=O)n(C)c4ccccc4c3n2C)cc1` it is inactive: -5.23%. The figure for `Cc1nc2ccccn2c(=O)c1NC(=O)c1ccccc1Cl` is inactive: -8.33%. With `COc1cc2c(C(=O)N3CCN(c4ccc(C)cc4)C(C)C3)cn(CC(C)C)c(=O)c2cc1OC` (stereo not drawn) the figure was inactive: -10.1%; with `COc1cccc(NC(=O)CCc2nc(-c3cc(OC)c(OC)c(OC)c3)no2)c1`, inactive: -19%. On to `COc1ccc(CCNC(=O)c2cc(-c3ccc(Cl)cc3)on2)cc1OC`, for which the “activation” value was inactive: -15.1%. The figure for `COc1ccc(C(=O)N2CCC(c3ccncc3)CC2)cc1OC` is inactive: -10.8%. Regarding `CCc1ccc(NC(=O)Cn2ccn(-c3cccc(Cl)c3)c(=O)c2=O)cc1`, the “activation” value is inactive: -7.49%. The figure for `Cc1ccc(CN2CCc3nc(N4CCN(C)CC4)ncc3C2)cc1` is inactive: -3.87%; for `COC(=O)C1=C(C)NC(C)=C(C(=O)O[C@@H]2CCCN(Cc3ccccc3)C2)[C@@H]1c1cccc([N+](=O)[O-])c1` it is inactive: -11%; for `COc1ccc(N2CCN(C(=O)Cc3noc4ccc(C)cc34)CC2)cc1` it is inactive: -11.1%. As for `COc1cc2c(cc1OC)C(COc1ccc3c(C)cc(=O)oc3c1)N(C(=O)c1ccc(C)c(C)c1)CC2` (stereo not drawn), the “activation” value is inactive: 4.52%.

As to `COC(=O)c1ccc(OC)c(CN2CCCN(Cc3ccc(C)cc3)S2(=O)=O)c1`, the “activation” value was inactive: -33.4%.

As for `Cc1nc2sccn2c(=O)c1S(=O)(=O)NCc1ccccc1`, the “activation” value is inactive: -12.4%. `COc1ccc(Nc2nnc(-c3ccc(C)c(S(=O)(=O)N4CCN(C)CC4)c3)c3ccccc23)cc1`: the “activation” value was inactive: -15.5%. The figure for `CCOc1ccccc1C1CC(=O)NC(C)=C1C(=O)OCc1ccc(C)cc1` (stereo not drawn) is inactive: -4.96%.

`Cc1ccc(C)c(N2CCN(C(=O)c3ccc4c(c3)c(C)c(C)n4C)CC2)c1`: the “activation” value is inactive: -24.8%. With `Cc1cccc(C)c1OCC(=O)N(Cc1ccc(Cl)cc1)CC1CCCO1` (stereo not drawn) the figure was inactive: 0.4%.

Consider `Cc1oc2c(c1C(=O)Nc1ccc(Cl)cc1F)C1=NCCN1C=N2`, for which the “activation” value was inactive: 8.95%. With `COc1ccc(Cl)cc1C(=O)NCC(c1ccc(N(C)C)cc1)N1CCOCC1` (stereo not drawn) the figure was inactive: -13.6%; with `CC(C)c1nn2c(=O)cc(COC(=O)c3ccccc3NC(=O)c3cccs3)nc2s1`, inactive: -16.6%. The figure for `O=C(O)CCNC(=O)c1ccccc1` is inactive: -15.7%. With `Cn1c(=O)c2c(nc(NCCc3ccccc3)n2Cc2ccc(Cl)c(Cl)c2)n(C)c1=O` the figure was inactive: -14.8%. With `CC1CCCN(c2csc3ccccc3c2=O)C1` (stereo not drawn), the “activation” value is inactive: -18.7%. With `CCCN(Cc1cccs1)C(=O)Nc1ccccc1C`, the “activation” value is inactive: -9.5%. As to `O=C(N[C@H](CO)[C@H](O)c1ccc([N+](=O)[O-])cc1)C(Cl)Cl`, the “activation” value was inactive: -14.9% [at 114 µM].

`COc1ccc(S(=O)(=O)NCCc2cn3ccsc3n2)cc1OC`: the “activation” value was inactive: -4%. With `CCOc1ccc(N(Cc2cc3cc(C)ccc3[nH]c2=O)C(=O)c2cccc(Cl)c2)cc1`, the “activation” value is inactive: 26.6%.

With `COc1ccc(NC(=O)CC2C(=O)N(c3ccc(OC)cc3)C(=O)N2C2CCCCC2)cc1` (stereo not drawn), the “activation” value is inactive: -15.1%.

As to `Cc1c(Cl)cccc1-n1c(SCC(=O)NCc2ccccc2)nc2n[nH]c(C)c2c1=N`, the “activation” value was inactive: -6.22%. Regarding `COc1cccc(C(=O)N2CC(=O)Nc3ccc(C)cc3C2c2ccc(F)cc2)c1OC` (stereo not drawn), the “activation” value is inactive: -21.3%. With `Cc1ccc(Nc2cc(=O)[nH]c(=O)[nH]2)cc1C` the figure was inactive: -10%; with `Cc1ccc2oc(=O)c(-c3nc4ccc(C)cc4[nH]3)cc2c1`, inactive: -6.46%. With `COc1ccc(OC)c(CNC(=O)CCc2c(C)nc3c(c2C)c(=O)n(C)c(=O)n3C)c1` the figure was inactive: -14.2%. The figure for `CCCOc1ccc(CNC(=O)C(C)n2nc(C)n3c(cc4occc43)c2=O)cc1` (stereo not drawn) is inactive: -13.1%; for `COc1ccc(Cl)cc1NC(=O)CSc1nnc(C)n2c1cc1sccc12` it is inactive: -9.23%. Consider `Cc1ccc(C(=O)N2c3ncnn3C3(CCCCC3)[C@@H]3CCCC[C@@H]32)cc1`, for which the “activation” value is inactive: -10%. With `Cn1c2c(c(=O)n(C)c1=O)C(c1cc(Br)ccc1F)CC(=O)N2` (stereo not drawn) the figure was inactive: -11.4%. In the case of `Cc1nc2cc(-c3ccccc3)nn2c(C)c1CCC(=O)NCCc1ccccc1`, the “activation” value is inactive: -4.12%. With `Cc1oc2ncnc(N3CCCCC3)c2c1C(=O)Nc1cccc(Cl)c1C`, the “activation” value is inactive: 6.95%. The figure for `CCc1ccccc1NS(=O)(=O)c1ccc(-c2coc(C)n2)cc1` is inactive: -33.1%; for `CCC1CCCCN1S(=O)(=O)c1ccc(NC(=O)c2nc(SC)ncc2Cl)cc1` (stereo not drawn) it is inactive: -17.7%.
